Measurements taken from PubChem BioAssay AID504332 (National Center for Advancing Translational Sciences (NCATS), 2011).
Out of some 350,000 compounds screened, about 31,000 (8.9%) were called active. This list was built around the results that the source calls inconclusive (neither active nor inactive); the mix of calls is not that of the screen. The call rests on the fitted dose curve; in most records, active means well fitted inhibition curve with a large enough effect; inconclusive means small, poorly fitted or top-dose-only effect; inactive means no such curve, though single readings can be large or run the other way. Potencies of inconclusive entries are doubtful fits and often do not repeat.

target: Histone-lysine N-methyltransferase EHMT2 (Homo sapiens) (UniProt Q96KQ7); test: qHTS Assay for Inhibitors of Histone Lysine Methyltransferase G9a; conditions: G9a H3K9 monomethylation, AlphaScreen, 2 h; activity, negative = inhibition: at 59 µM (top of the series) unless noted; further: nearly all actives have a fitted effect of over 75% in size
Chain of UniProt Q96KQ7 (Q96KQ7 whole entry, looked up): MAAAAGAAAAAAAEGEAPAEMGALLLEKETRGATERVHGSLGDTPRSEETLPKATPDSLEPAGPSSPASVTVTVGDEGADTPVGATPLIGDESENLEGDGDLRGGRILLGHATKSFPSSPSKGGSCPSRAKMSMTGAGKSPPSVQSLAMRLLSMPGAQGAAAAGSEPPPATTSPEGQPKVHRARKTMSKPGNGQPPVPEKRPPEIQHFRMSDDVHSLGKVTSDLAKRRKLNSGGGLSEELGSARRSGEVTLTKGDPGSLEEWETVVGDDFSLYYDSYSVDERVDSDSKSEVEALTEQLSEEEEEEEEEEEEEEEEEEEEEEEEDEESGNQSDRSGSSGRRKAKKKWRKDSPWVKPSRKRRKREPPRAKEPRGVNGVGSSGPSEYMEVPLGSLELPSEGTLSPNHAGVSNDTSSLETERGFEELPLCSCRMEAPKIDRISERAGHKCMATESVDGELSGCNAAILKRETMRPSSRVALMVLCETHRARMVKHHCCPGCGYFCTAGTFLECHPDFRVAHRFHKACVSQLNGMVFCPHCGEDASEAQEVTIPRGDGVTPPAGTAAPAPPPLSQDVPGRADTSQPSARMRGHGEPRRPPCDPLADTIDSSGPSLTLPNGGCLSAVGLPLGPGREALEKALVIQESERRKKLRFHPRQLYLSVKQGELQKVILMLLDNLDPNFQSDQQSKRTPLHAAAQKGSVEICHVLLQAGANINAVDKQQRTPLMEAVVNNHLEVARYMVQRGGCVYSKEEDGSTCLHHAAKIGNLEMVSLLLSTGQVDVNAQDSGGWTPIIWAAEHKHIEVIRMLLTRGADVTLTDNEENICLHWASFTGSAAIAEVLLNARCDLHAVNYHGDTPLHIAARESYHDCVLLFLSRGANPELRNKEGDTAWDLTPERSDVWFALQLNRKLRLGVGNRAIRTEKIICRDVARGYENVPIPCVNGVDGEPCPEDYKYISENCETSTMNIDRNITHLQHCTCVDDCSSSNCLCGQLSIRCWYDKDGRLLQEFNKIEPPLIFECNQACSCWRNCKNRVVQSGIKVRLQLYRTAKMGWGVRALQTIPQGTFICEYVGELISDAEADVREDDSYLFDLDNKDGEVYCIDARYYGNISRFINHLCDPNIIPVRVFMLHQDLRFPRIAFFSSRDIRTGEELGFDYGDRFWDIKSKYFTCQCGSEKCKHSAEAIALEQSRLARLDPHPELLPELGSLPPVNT
How it was run: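 Readings reflect AlphaScreen signal from monomethyl-H3K9 antibody detection. HMT at 20 nM; substrate b-H3K9 500 nM; cofactor SAM 20 uM; 2 h RT reaction; compounds tested as titrations in qHTS with 15 min preincubation.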
On the % scale 0 is the no-effect control and ±100 the full control effect; potency means the concentration at half of the fitted maximal effect; tags describe the fitted curve by direction and shape.

SMILES	activity, negative = inhibition	Potency
COc1cc2c(cc1OC)CN(CC(=O)Nc1ccccc1C(=O)NCc1ccccc1)CC2	inactive: 13.7% [at 102 µM]	–
Cc1n[nH]c(C)c1S(=O)(=O)N1CCCC(C(=O)NCc2ccccc2Cl)C1 (stereo not drawn)	–	inconclusive: 89.1 µM [inhibitor, partial curve, poor fit]
O=C1CSC(c2ccc([N+](=O)[O-])cc2)N1C1CCCCC1 (stereo not drawn)	–	inconclusive: 100 µM [inhibitor, single point]
Cc1ccc2nc(NC(=O)CCn3c(=O)sc4ccccc43)sc2c1	–	inconclusive: 31.6 µM [inhibitor, single point]
COC(=O)c1ccc(N2C(=O)CC(SCCN)C2=O)cc1 (stereo not drawn)	–	active: 14.1 µM
COc1ccc(NC(=O)Cn2c(=O)oc3cc(S(=O)(=O)N4CCCC4)ccc32)cc1	–	inconclusive: 50.1 µM [inhibitor, partial curve, poor fit]
COc1ccc(NS(=O)(=O)c2ccc3oc(Nc4ccc5c(c4)OCCO5)nc3c2)cc1	inconclusive: -84.3% [inhibitor]	–
Cc1[nH]c2ccccc2c1CCN(Cc1cccs1)C(=S)Nc1ccccc1	–	inconclusive: 2.24 µM [inhibitor, partial curve, poor fit]
Oc1c(Br)cc(Br)cc1C=Nc1ccc2[nH]ncc2c1	inactive: 19.1%	–
Cc1nc(-c2ccc3c(c2)OCCO3)cs1	–	active: 31.6 µM
C=CCOC(=O)C1=C(C)OC(N)=C(C#N)C1c1ccoc1 (stereo not drawn)	–	inconclusive: 7.08 µM [inhibitor, single point]
CCOC(=O)c1[nH]n(-c2ccc(Cl)cc2)c(=O)c1C	–	inconclusive: 17.8 µM [inhibitor, partial curve, poor fit]
CCOc1ccc(NC(=O)COC(=O)COc2cccc3c2OC(C)(C)C3)cc1	–	inconclusive: 100 µM [inhibitor, single point]
O=C(NNC(=S)NC1CCCCC1)c1cccc(S(=O)(=O)Nc2ccccc2Cl)c1	–	inconclusive: 25.1 µM [inhibitor, single point]
Cc1sc2nc(CN3CCCC3)nc(NCc3ccncc3)c2c1C	–	inconclusive: 50.1 µM [inhibitor, partial curve, poor fit]
CCOC(=O)c1cccc(NC(=O)Cn2nc(C)n3cccc3c2=O)c1	inactive: 10.6%	–
CCc1noc(C)c1C(=O)Nc1cc(S(=O)(=O)N2CCCCC2)ccc1N(C)C	–	inconclusive: 3.98 µM [inhibitor, single point]
CCCn1c(N/N=C(C)\C=C\c2ccccc2)nc2c1c(=O)[nH]c(=O)n2C	–	inconclusive: 39.8 µM [inhibitor, partial curve, poor fit]
